According to PMC12337393:
No constants are given. Whether binding was seen depends on the method and setting. In cells and extracts the contact can be indirect. Some results given as binding are weak or reduced against the parent protein; the word gives no strength. For part of these data: Where a sequence is shown, tags or fusion partners need not be part of it.

Sequences of proteins named here, by UniProt entry; tags and fusion partners are left off. A change or cut given only in a name is not applied to a line headed by its entry. A line that says so, or that is headed by a name, gives the form on record, which may keep a tag or linker. Residues count along the entry.
UniProt Q96GD4: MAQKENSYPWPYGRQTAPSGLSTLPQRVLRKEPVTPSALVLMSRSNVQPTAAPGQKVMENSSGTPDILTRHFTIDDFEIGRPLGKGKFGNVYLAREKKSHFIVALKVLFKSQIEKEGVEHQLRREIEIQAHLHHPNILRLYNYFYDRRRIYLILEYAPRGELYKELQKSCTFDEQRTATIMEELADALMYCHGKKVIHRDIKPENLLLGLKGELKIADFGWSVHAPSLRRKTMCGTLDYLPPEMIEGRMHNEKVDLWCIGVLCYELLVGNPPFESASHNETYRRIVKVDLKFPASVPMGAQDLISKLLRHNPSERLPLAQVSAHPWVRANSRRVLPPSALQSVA
Flag-tagged AURKB truncation 1-251aa: residues 1-251 of Q96GD4
Flag-tagged AURKB truncation 1-76aa: residues 1-76 of Q96GD4
Flag-tagged AURKB truncation 252-344aa (C-terminal domain): residues 252-344 of Q96GD4

Key:
[1] = target: Aurora kinase B (AURKB), endogenous (human (endogenous in HCT116, RKO and CRC tissue)) (UniProt Q96GD4); test: co-IP; endogenous proteins; immunoprecipitation with an anti-AURKB antibody from HCT116 and RKO cells, western blot for AURKB and HNRNPM
[2] = target: Aurora kinase B (AURKB), endogenous (human (endogenous in HCT116, RKO and CRC tissue)) (UniProt Q96GD4); test: proximity ligation; formalin-fixed paraffin-embedded sections of CRC and paired normal tissues; rabbit anti-AURKB (1:400) and mouse anti-HNRNPM (1:100), anti-mouse PLUS and anti-rabbit MINUS probes
[3] = target: Flag-tagged AURKB truncation 1-251aa (UniProt Q96GD4); test: co-IP; 293T cells co-transfected with Flag-tagged AURKB (full-length or truncations) and HA-tagged HNRNPs, lysed 48 h after transfection; immunoprecipitation with anti-Flag antibody or control rabbit IgG, western blot
[4] = target: Flag-tagged AURKB truncation 1-76aa (UniProt Q96GD4); test: as above
[5] = target: Flag-tagged AURKB truncation 252-344aa (C-terminal domain) (UniProt Q96GD4); test: as above
[6] = target: Flag-tagged AURKB, full-length (Aurora kinase B) (UniProt Q96GD4); test: as above

B1: Heterogeneous nuclear ribonucleoprotein M (HNRNPM), endogenous (protein, UniProt P52272 1-730)
chain: MAAGVEAAAEVAATEIKMEEESGAPGVPSGNGAPGPKGEGERPAQNEKRKEKNIKRGGNRFEPYANPTKRYRAFITNIPFDVKWQSLKDLVKEKVGEVTYVELLMDAEGKSRGCAVVEFKMEESMKKAAEVLNKHSLSGRPLKVKEDPDGEHARRAMQKVMATTGGMGMGPGGPGMITIPPSILNNPNIPNEIIHALQAGRLGSTVFVANLDYKVGWKKLKEVFSMAGVVVRADILEDKDGKSRGIGTVTFEQSIEAVQAISMFNGQLLFDRPMHVKMDERALPKGDFFPPERPQQLPHGLGGIGMGLGPGGQPIDANHLNKGIGMGNIGPAGMGMEGIGFGINKMGGMEGPFGGGMENMGRFGSGMNMGRINEILSNALKRGEIIAKQGGGGGGGSVPGIERMGPGIDRLGGAGMERMGAGLGHGMDRVGSEIERMGLVMDRMGSVERMGSGIERMGPLGLDHMASSIERMGQTMERIGSGVERMGAGMGFGLERMAAPIDRVGQTIERMGSGVERMGPAIERMGLSMERMVPAGMGAGLERMGPVMDRMATGLERMGANNLERMGLERMGANSLERMGLERMGANSLERMGPAMGPALGAGIERMGLAMGGGGGASFDRAIEMERGNFGGSFAGSFGGAGGHAPGVARKACQIFVRNLPFDFTWKMLKDKFNECGHVLYADIKMENGKSKGCGVVKFESPEVAERACRMMNGMKLSGREIDVRIDRNA
- binding [1]: binds
- binding [2]: binds

B2: HA-tagged HNRNPM (heterogeneous nuclear ribonucleoprotein M) (protein, UniProt P52272 1-730)
chain: B1 chain
- binding [3]: no binding
- binding [4]: no binding
- binding [5]: binds
- binding [6]: binds
